# Measured values as given in patent publication US10800791B2, “Triazole ACC inhibitors and uses thereof” (Gilead Apollo, LLC, priority 2015, dated 2020).
# What was measured:
# Botrtyis cinerea (Bc) = assay: Growth inhibition assay of fungal pathogens, Bc; format: cell-based; conditions: 48 h
# Description: (§1) Compounds of the present invention were evaluated in a growth inhibition assay to determine the ability to control the growth of fungal pathogens, such as Botrtyis cinerea (Bc), Collectotrichum graminicola (Cg), Diplodia maydis (Dm), Fusarium moniliforme (Fm), Fusarium virguliforme (Fv), Phytophthora capsici (Pc), Rhizoctonia solani (Rs), and Septoria tritici (St).
# (§2) Compounds to be tested were dissolved in DMSO at 2.5 mg/ml to produce compound stock solutions (“stocks”). Stocks were diluted with DMSO by a five-fold dilution in a 96-well stock plate, and two sets of final concentrations of 50, 10, and 2 ppm or 2, 0.4, and 0.08 ppm were obtained in vitro. A set of positive controls was also prepared, with various concentrations of Soraphen (2, 0.4, and 0.08 ppm), Metalaxyl (1.1, 0.22, and 0.04 ppm), and Metconazole (2, 0.4, and 0.08 ppm or 0.2, 0.04, and 0.008 ppm) after the five-fold dilutions. Negative controls on each plate included 2% DMSO, water, and a blank (media+2% DMSO).
# (§3) Fungal spores were isolated from previously sub-cultured plates of Botrtyis cinerea (Bc), Collectotrichum graminicola (Cg), Diplodia maydis (Dm), Fusarium moniliforme (Fm), Fusarium virguliforme (Fv), Phytophthora capsici (Pc), and Septoria tritici (St). The isolated spores were diluted to individual concentrations with a 17% V8 liquid media. For Rhizoctonia solani (Rs) and Pythium irregulare, 1.5 mm mycelial plugs were used in place of spores and/4 Potato Dextrose Broth (PDB) was used for dilution. The spore concentrations and plug sizes were based on growth curves generated at 48 hours for each pathogen.
# (§4) In a second 96-well plate, the spores or mycelial plugs, media, diluted compound solutions, and controls were combined. Once the compound was added, a true final concentration of compound in each well was measured by an OD600 reading, which adjusted for any compound precipitation that might have occurred in the well. Plate readings were repeated at both 24 and 48 hours. The blank negative control was used as a background subtraction. Additional visual ratings were performed at both 24 and 48 hours for checking on precipitation and confirming efficacy. Visual and OD600 ratings of the compounds at 48 hours were compared to the 2% DMSO negative control, and the percent of pathogen growth inhibition was determined based on those values.
# C. krusei = assay: Antifungal Activity Assay (broth microtiter MIC), C. krusei; format: cell-based, Candida krusei; conditions: Pichia kudriavzevii, ATCC6258, 48 h
# Description: (§5) Compounds of the present invention were evaluated in an Antifungal Activity Assay. An exemplary procedure for the assay, which measures the susceptibility of various Candida species to antifungal compounds, follows. Compounds to be tested (including fluconazole and amphotericin B) were dissolved in DMSO to obtain a solution having a concentration of 1 mg/mL. These stock solutions were sterile filtered using a 0.22 um nylon syringe filter, then diluted in sterile water to achieve a final concentration of 128 μg/mL.
# (§6) All species were grown from frozen stock by directly plating on to freshly prepared Sabouraud Dextrose agar (BD, Difco) and incubated overnight in ambient air at 35° C. for 24 h. A direct suspension was prepared in RPMI 1640+MOPS (Lonza, Biowhittaker) by taking individual colonies from the overnight cultures using sterile swabs soaked in sterile saline. The concentration of the suspension was determined using pre-determined standard curves. These suspensions were then diluted down to 5×10^3 CFU/mL to achieve a final concentration of 2.5×10^3 CFU/mL once added to the microtiter plate as per CLSI guidelines (M27-A3, Vol. 28 No. 14).
# (§7) Broth microtiter MIC challenge plates were prepared following CLSI guidelines (M27-A3, Vol. 28 No. 14). The original CLSI guidelines focused on reading Candida MICs after 48 h of incubation. As reading after only 24 h offers a clear advantage of patient care, QC limits are being established for all drugs at 24 h. That being said there are no known interpretive breakpoints for amphotericin B at 24 h and the current fluconazole interpretive breakpoints are based on a 48 h reading. The MICs for the test compounds were recorded at 48 h. All MIC determinations were achieved by visually comparing the growth found in the antibiotic challenged wells to that of the growth control.
# [1] = tested on: Fusarium moniliforme (Fm); assay: Growth inhibition assay of fungal pathogens, Fm; format: cell-based; conditions: for IC90: Fusarium verticillioides, 48 h, read-out: Concentration at 90% Inhibition Fm
# Description: as §1, §2, §3, §4
# [2] = tested on: Collectotrichum graminicola (Cg); assay: Growth inhibition assay of fungal pathogens, Cg; format: cell-based; conditions: 48 h
# Description: as §1, §2, §3, §4
# [3] = tested on: Fusarium virguliforme (Fv); assay: Growth inhibition assay of fungal pathogens, Fv; format: cell-based; conditions: 48 h
# Description: as §1, §2, §3, §4
# fungal (fACC2) = fungal (fACC2) (UniProt Q00955); conditions: read-out: fACC2 (in vitro ACC2 Inhibition Assay, IC50), ADP-Glo, 5 nM ACC2, 20 μM ATP, 20 μM acetyl-CoA
# UniProt Q00955, sequence (Q00955 whole entry): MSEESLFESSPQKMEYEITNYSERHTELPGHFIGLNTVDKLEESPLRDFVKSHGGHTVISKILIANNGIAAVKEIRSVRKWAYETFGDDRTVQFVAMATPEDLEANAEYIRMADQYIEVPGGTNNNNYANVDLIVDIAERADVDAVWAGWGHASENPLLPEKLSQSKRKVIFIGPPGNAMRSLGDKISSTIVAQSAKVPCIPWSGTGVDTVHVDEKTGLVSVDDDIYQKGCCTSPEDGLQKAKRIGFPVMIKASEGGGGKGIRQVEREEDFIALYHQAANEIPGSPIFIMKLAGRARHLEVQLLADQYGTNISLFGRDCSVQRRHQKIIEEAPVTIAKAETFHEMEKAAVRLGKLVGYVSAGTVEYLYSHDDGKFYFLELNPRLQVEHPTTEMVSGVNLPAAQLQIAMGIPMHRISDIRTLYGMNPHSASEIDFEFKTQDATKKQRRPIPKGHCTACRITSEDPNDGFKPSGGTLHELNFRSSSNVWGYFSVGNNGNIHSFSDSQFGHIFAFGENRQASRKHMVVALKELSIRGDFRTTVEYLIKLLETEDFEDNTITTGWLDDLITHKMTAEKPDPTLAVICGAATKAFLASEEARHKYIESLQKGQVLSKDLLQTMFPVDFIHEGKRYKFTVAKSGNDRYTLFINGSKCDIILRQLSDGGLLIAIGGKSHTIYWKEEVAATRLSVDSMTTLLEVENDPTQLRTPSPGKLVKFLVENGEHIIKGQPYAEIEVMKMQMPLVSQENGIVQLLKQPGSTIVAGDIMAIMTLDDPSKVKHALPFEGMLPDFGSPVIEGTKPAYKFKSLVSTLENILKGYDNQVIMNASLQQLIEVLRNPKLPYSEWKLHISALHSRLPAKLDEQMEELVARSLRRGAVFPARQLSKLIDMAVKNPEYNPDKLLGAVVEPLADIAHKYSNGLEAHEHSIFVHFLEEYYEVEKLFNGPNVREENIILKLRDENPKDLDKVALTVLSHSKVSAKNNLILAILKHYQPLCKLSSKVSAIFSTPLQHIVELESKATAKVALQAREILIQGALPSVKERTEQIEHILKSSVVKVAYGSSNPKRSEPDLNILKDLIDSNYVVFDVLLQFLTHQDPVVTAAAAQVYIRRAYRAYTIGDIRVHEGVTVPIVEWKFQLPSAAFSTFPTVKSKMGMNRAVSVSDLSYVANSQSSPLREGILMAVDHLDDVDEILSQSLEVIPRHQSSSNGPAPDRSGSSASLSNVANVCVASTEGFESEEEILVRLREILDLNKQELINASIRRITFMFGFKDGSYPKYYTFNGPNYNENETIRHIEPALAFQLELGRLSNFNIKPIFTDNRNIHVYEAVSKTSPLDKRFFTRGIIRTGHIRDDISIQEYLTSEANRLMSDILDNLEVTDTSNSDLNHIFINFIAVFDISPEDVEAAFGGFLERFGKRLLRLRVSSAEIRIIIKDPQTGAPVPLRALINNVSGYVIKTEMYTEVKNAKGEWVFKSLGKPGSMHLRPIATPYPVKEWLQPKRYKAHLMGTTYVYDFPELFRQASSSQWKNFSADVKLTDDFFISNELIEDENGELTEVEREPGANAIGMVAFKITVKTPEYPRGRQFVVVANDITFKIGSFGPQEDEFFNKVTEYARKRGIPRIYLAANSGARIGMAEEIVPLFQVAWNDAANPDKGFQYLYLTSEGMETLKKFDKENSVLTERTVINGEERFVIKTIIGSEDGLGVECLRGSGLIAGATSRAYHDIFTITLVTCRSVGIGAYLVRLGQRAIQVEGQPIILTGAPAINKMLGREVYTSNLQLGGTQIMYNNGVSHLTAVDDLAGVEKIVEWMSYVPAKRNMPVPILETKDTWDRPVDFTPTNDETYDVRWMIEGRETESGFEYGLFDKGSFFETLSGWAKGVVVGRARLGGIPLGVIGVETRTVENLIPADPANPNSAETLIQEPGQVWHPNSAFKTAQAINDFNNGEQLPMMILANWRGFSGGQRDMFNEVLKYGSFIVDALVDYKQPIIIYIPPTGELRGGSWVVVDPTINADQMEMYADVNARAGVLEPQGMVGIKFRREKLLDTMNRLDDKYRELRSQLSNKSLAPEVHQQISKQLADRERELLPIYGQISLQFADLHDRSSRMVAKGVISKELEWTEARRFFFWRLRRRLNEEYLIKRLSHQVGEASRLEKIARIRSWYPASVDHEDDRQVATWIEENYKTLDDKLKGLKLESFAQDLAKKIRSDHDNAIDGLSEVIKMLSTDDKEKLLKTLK
# Diplodia maydis (Dm) = assay: Growth inhibition assay of fungal pathogens, Dm; format: cell-based; conditions: Stenocarpella maydis, 48 h
# Description: as §1, §2, §3, §4
# C. albicans = assay: Antifungal Activity Assay (broth microtiter MIC), C. albicans; format: cell-based; conditions: Candida albicans, ATCC90028, 48 h
# Description: as §5, §6, §7
# C. parapsilosis = assay: Antifungal Activity Assay (broth microtiter MIC), C. parapsilosis; format: cell-based, Candida parapsilosis; conditions: Lodderomyces parapsilosis, ATCC22019, 48 h
# Description: as §5, §6, §7
# Septoria tritici (St) = assay: Growth inhibition assay of fungal pathogens, St; format: cell-based; conditions: Zymoseptoria tritici, 48 h
# Description: as §1, §2, §3, §4
# [4] = Botrtyis cinerea, growth inhibition at 48 hours vs 2% DMSO control, read-out: Concentration at 90% Inhibition Bc
# [5] = Botrtyis cinerea, growth inhibition vs 2% DMSO control at 48 hours, read-out: Concentration at 90% Inhibition Bc
# [6] = Table 3a, ATCC 6258, 3 replicates, MIC recorded at 48 h, read-out: MIC, C. krusei ATCC 6258
# [7] = Table 3b (additional results), ATCC 6258, 3 replicates, MIC recorded at 48 h, read-out: MIC, C. krusei ATCC 6258
# [8] = Fusarium moniliforme, growth inhibition at 48 hours vs 2% DMSO control
# [9] = Fusarium moniliforme, growth inhibition vs 2% DMSO control at 48 hours
# [10] = Collectotrichum graminicola, growth inhibition at 48 hours vs 2% DMSO control, read-out: Concentration at 90% Inhibition Cg
# [11] = Collectotrichum graminicola, growth inhibition vs 2% DMSO control at 48 hours, read-out: Concentration at 90% Inhibition Cg
# [12] = growth inhibition at 48 hours vs 2% DMSO control, read-out: Concentration at 90% Inhibition Fv
# [13] = growth inhibition vs 2% DMSO control at 48 hours, read-out: Concentration at 90% Inhibition Fv
# [14] = Diplodia maydis, growth inhibition at 48 hours vs 2% DMSO control, read-out: Concentration at 90% Inhibition Dm
# [15] = Diplodia maydis, growth inhibition vs 2% DMSO control at 48 hours, read-out: Concentration at 90% Inhibition Dm
# [16] = Table 3a, ATCC 90028, 3 replicates, MIC recorded at 48 h, read-out: MIC, C. albicans ATCC 90028
# [17] = Table 3b (additional results), ATCC 90028, 3 replicates, MIC recorded at 48 h, read-out: MIC, C. albicans ATCC 90028
# [18] = Table 3a, ATCC 22019, 3 replicates, MIC recorded at 48 h, read-out: MIC, C. parapsilosis ATCC 22019
# [19] = Table 3b (additional results), ATCC 22019, 3 replicates, MIC recorded at 48 h, read-out: MIC, C. parapsilosis ATCC 22019
# [20] = Septoria tritici, growth inhibition at 48 hours vs 2% DMSO control, read-out: Concentration at 90% Inhibition St
# [21] = Septoria tritici, growth inhibition vs 2% DMSO control at 48 hours, read-out: Concentration at 90% Inhibition St
SMILES,IC90 (Botrtyis cinerea (Bc); [4]) [µg/mL],IC90 (Botrtyis cinerea (Bc); [5]) [µg/mL],MIC (C. krusei; [6]) [µg/mL],MIC (C. krusei; [7]) [µg/mL],"IC90 [1, 8] [µg/mL]","IC90 [1, 9] [µg/mL]","IC90 [2, 10] [µg/mL]","IC90 [2, 11] [µg/mL]","IC90 [3, 12] [µg/mL]","IC90 [3, 13] [µg/mL]",IC50 (fungal (fACC2); Table 2a) [nM],"IC50 (fungal (fACC2); Table 2b, additional results) [nM]",IC90 (Diplodia maydis (Dm); [14]) [µg/mL],IC90 (Diplodia maydis (Dm); [15]) [µg/mL],MIC (C. albicans; [16]) [µg/mL],MIC (C. albicans; [17]) [µg/mL],MIC (C. parapsilosis; [18]) [µg/mL],MIC (C. parapsilosis; [19]) [µg/mL],IC90 (Septoria tritici (St); [20]) [µg/mL],IC90 (Septoria tritici (St); [21]) [µg/mL],other results
"COc1ccccc1[C@H](Cn1c(=O)n(C(C)(C)C(=O)NC2CCC2)c(=O)c2c(C)c(-n3nccn3)sc21)OC1CCOCC1 [Compound I-20, (R)—N-cyclobutyl-2-(1-(2-(2-methoxyphenyl)-2-((tetrahydro-2H-pyran-4-yl)oxy)ethyl)-5-methyl-2,4-dioxo-6-(2H-1,2,3-triazol-2-yl)-1,4-dihydrothieno[2,3-d]pyrimidin-3(2H)-yl)-2-methylpropanamide]",0.4,0.4,0.25 to 1,0.06 to 0.249,0.08,0.08,0.4,0.4,0.4,0.4,1 to 5,1 to 5,0.4,0.4,0.25 to 1,0.25 to 1,0.25 to 1,0.25 to 1,10,> 50,–
"COc1ccccc1[C@H](Cn1c(=O)n(C(C)(C)C(=O)NC2CCCCC2)c(=O)c2c(C)c(-n3nccn3)sc21)OC1CCOCC1 [Compound I-21, (R)—N-cyclohexyl-2-(1-(2-(2-methoxyphenyl)-2-((tetra-hydro-2H-pyran-4-yl)oxy)ethyl)-5-methyl-2,4-dioxo-6-(2H-1,2,3-triazol-2-yl)-1,4-dihydrothieno[2,3-d]pyrimidin-3(2H)-yl)-2-methylpropanamide]",–,–,–,–,–,–,–,–,–,–,1 to 5,1 to 5,–,–,–,–,–,–,–,–,"IC90 (Botrtyis cinerea (Bc); read-out: Concentration at 90% Inhibition Bc, Botrtyis cinerea, growth inhibition at 48 hours vs 2% DMSO control): 0.4 µg/mL; IC90 (Botrtyis cinerea (Bc); read-out: Concentration at 90% Inhibition Bc, Botrtyis cinerea, growth inhibition vs 2% DMSO control at 48 hours): 0.4 µg/mL; MIC (C. krusei; read-out: MIC, C. krusei ATCC 6258, Table 3a, 3 replicates, MIC recorded at 48 h): 0.25 to 1 µg/mL; MIC (C. krusei; read-out: MIC, C. krusei ATCC 6258, Table 3b (additional results), 3 replicates, MIC recorded at 48 h): 0.06 to 0.249 µg/mL; Concentration at 90% Inhibition Fm [1, 8]: AA (compound concentration of 0.08 ppm at 90% inhibition of fungal pathogens); IC90 [1]: 0.08 µg/mL; IC90 ([2]; read-out: Concentration at 90% Inhibition Cg, Collectotrichum graminicola, growth inhibition at 48 hours vs 2% DMSO control): 2 µg/mL; IC90 ([2]; read-out: Concentration at 90% Inhibition Cg, Collectotrichum graminicola, growth inhibition vs 2% DMSO control at 48 hours): 10 µg/mL; IC90 ([3]; read-out: Concentration at 90% Inhibition Fv, Fusarium virguliforme, growth inhibition at 48 hours vs 2% DMSO control): 2 µg/mL; IC90 ([3]; read-out: Concentration at 90% Inhibition Fv, Fusarium virguliforme, growth inhibition vs 2% DMSO control at 48 hours): 2 µg/mL; IC90 (Diplodia maydis (Dm); read-out: Concentration at 90% Inhibition Dm, Diplodia maydis, growth inhibition at 48 hours vs 2% DMSO control): 0.4 µg/mL; IC90 (Diplodia maydis (Dm); read-out: Concentration at 90% Inhibition Dm, Diplodia maydis, growth inhibition vs 2% DMSO control at 48 hours): 0.4 µg/mL; MIC (C. albicans; read-out: MIC, C. albicans ATCC 90028, Table 3a, 3 replicates, MIC recorded at 48 h): 0.25 to 1 µg/mL; MIC (C. albicans; read-out: MIC, C. albicans ATCC 90028, Table 3b (additional results), 3 replicates, MIC recorded at 48 h): 0.25 to 1 µg/mL; MIC (C. parapsilosis; read-out: MIC, C. parapsilosis ATCC 22019, Table 3a, 3 replicates, MIC recorded at 48 h): 0.25 to 1 µg/mL; MIC (C. parapsilosis; read-out: MIC, C. parapsilosis ATCC 22019, Table 3b (additional results), 3 replicates, MIC recorded at 48 h): 0.06 to 0.249 µg/mL; IC90 (Septoria tritici (St); read-out: Concentration at 90% Inhibition St, Septoria tritici, growth inhibition at 48 hours vs 2% DMSO control): 10 µg/mL; IC90 (Septoria tritici (St); read-out: Concentration at 90% Inhibition St, Septoria tritici, growth inhibition vs 2% DMSO control at 48 hours): > 50 µg/mL"
"CCNC(=O)C(C)(C)n1c(=O)c2c(C)c(-n3nccn3)sc2n(C[C@H](OC2CCOCC2)c2cc(F)ccc2OC)c1=O [Compound I-22, (R)—N-ethyl-2-(1-(2-(5-fluoro-2-methoxyphenyl)-2-((tetrahydro-2H-pyran-4-yl)oxy)ethyl)-5-methyl-2,4-dioxo-6-(2H-1,2,3-triazol-2-yl)-1,4-dihydrothieno[2,3-d]pyrimidin-3(2H)-yl)-2-methylpropanamide]",2,2,0.25 to 1,0.25 to 1,0.08,0.08,2,10,0.4,0.4,1 to 5,1 to 5,2,2,0.25 to 1,0.25 to 1,0.25 to 1,1.01 to 2,> 50,> 50,–

# Read-outs that look alike come from different tables or passages of the source.
